# Laboratory results published in PubChem BioAssay AID504832 (National Center for Advancing Translational Sciences (NCATS), 2011).
# About 18,000 (5.8%) of roughly 310,000 compounds were called active. This list was built around the results that the source calls inconclusive (neither active nor inactive); the mix of calls is not that of the screen. Calls come from the whole dose curve; as a rule, active = well fitted inhibition curve with a large enough effect; inconclusive = small, poorly fitted or top-dose-only effect, or another doubt; inactive = no such curve, though single readings can be large or run the other way. No potency is given beside an inconclusive call; the fits are too rough.
# Experiment: Primary qHTS for delayed death inhibitors of the malarial parasite plastid, 48 hour incubation
# Conditions: P. falciparum luciferase growth in erythrocytes; series mostly up to 28.7 µM; activity change, negative = inhibition: at the top concentration
# Outline: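 Luciferase-expressing P. falciparum in infected erythrocytes (2% hematocrit, 0.1% parasitemia final) in RPMI 1640/0.5% Albumax were exposed to compound for 48 hours at 37 C, 5% CO2; growth read as luminescence.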
# % is set by controls: 0 for no effect and ±100 for the full control effect; potency is the fitted concentration of half-maximal effect; tags give direction and shape of the fitted curve.
Structure (SMILES),Potency,"activity change, negative = inhibition"
Cc1cccc(OCC(O)CN2CCN(CCN3C(=O)c4cccc5cccc(c45)C3=O)CC2)c1C (configuration not stated),"inconclusive [inhibitor, single point]",–
COc1ccc(/C=N/N2CCN(c3ccc(Cl)cc3)CC2)cc1O,–,inactive: 9.27%
CC1C(=O)Nc2ccc(S(=O)(=O)NCc3ccc(Cl)cc3)cc2NC1=O (configuration not stated),–,inactive: -5.15%
COc1ccc(CC(NC(C)=O)C(=O)NC2CCN(C(=O)Nc3ccc(Cl)cc3)CC2)cc1OC (configuration not stated),"inconclusive [inhibitor, single point]",–
CCN(CC)CCN(C(=O)Cn1nnc(-c2ccc(C)o2)n1)C(C(=O)NC(C)(C)C)c1cccs1 (configuration not stated),"inconclusive [inhibitor, single point]",–
COc1cccc(-n2nc(C(=O)N3CCN(Cc4ccccc4)CC3)c3ccccc3c2=O)c1,"inconclusive [inhibitor, single point]",–
O=[N+]([O-])c1ccc(SCCO)nc1SCCO,"inconclusive [inhibitor, partial curve, poor fit]",–
COc1ccccc1NS(=O)(=O)c1cccc(C(=O)N2CCCCCCC2)c1,–,inactive: -2.14%
CC1(C)CC(=O)C(c2c[nH]c3ccccc23)C(=O)C1,–,inactive: -11.7%
Nc1nc(CN2CCN(c3ccccc3)CC2)nc(N2CCCc3ccccc32)n1,"inconclusive [inhibitor, single point]",–
COc1cccc(Nc2nc3ccc(C(=O)c4ccccc4)cc3n3cnnc23)c1,"inconclusive [inhibitor, single point]",–
Cc1c(C(=O)Nc2ccncc2)sc2nc(-c3ccc(F)cc3)cn12,active: 2.33 µM,–
Cc1ccc2cc3cc(C(=O)N(CC(=O)NC4CCCC4)c4cccc(C)c4C)sc3nc2c1,"inconclusive [inhibitor, full curve]",–
CCc1ccc2c(CN3CCN(S(=O)(=O)c4cccs4)CC3)cc(=O)oc2c1,"inconclusive [inhibitor, partial curve, poor fit]",–
Cc1cccc(NC(=O)c2ccccc2SCc2ccc(F)cc2)n1,"inconclusive [inhibitor, single point]",–
CCOC(=O)N/N=C/c1cn(Cc2ccc(Cl)cc2)c2ccccc12,"inconclusive [inhibitor, single point]",–
COc1ccc(NC(=O)CSCC(=O)N(C)CC(=O)Nc2c(C)cccc2C)cc1,–,inactive: 0.311%
CC(=O)Nc1cc(NC(C)=O)cc(C(=O)OCC(=O)c2ccc3c(c2)NC(=O)CO3)c1,–,inactive: -24.2%
COc1cc2ccccc2cc1C(=O)Nc1ccc(C)cn1,–,inactive: 98.4%
CCOC(=O)/C=c1\s/c(=C\c2c(OC)ccc3ccccc23)c(=O)n1CC(=O)NCC1CCCO1 (configuration not stated),"inconclusive [inhibitor, partial curve, poor fit]",–
C[C@H]1C=C(C(=O)N2CCN(Cc3ccc4c(c3)OCO4)CC2)O[C@@H](OCc2ccc(CO)cc2)C1,"inconclusive [inhibitor, single point]",–
CC1CCCC(NC(=O)COC(=O)/C=C/c2ccco2)C1C (configuration not stated),–,inactive: -10.4%
Cc1ccc(Cn2nnc3c(=O)[nH]c(C4CCN(S(=O)(=O)c5ccc(S(=O)(=O)NC6CC6)cc5)CC4)nc32)cc1,"inconclusive [inhibitor, partial curve]",–

Structure (SMILES),Potency,"activity change, negative = inhibition"
COc1cc2cnc(-c3ccccc3)c(-c3ccc(C#N)cc3)c2cc1OC,active: 2.33 µM,–
Brc1ccc(-c2csc(-c3ccncc3)n2)cc1,"inconclusive [inhibitor, single point]",–
COc1ccc(NC(=O)Cn2c(CCC(=O)O)ccc2-c2ccc(C)cc2)cc1,–,inactive: 12.4%
CCOC(=O)C1(C)/C(=N/Nc2ccccc2Cl)C(=O)C(=O)N1c1ccccc1 (configuration not stated),–,inactive: 14.7%
Cc1nnc(SCC2=C(C(=O)O)N3C(=O)C(NC(=O)Cn4nc(C(F)F)cc4C)C3SC2)s1 (configuration not stated),"inconclusive [inhibitor, partial curve, poor fit]",–
O=c1c2ccccc2c(C=NCCCN2CCOCC2)c(O)n1Cc1ccc2c(c1)OCO2,"inconclusive [inhibitor, single point]",–
Cn1c(C(=O)NCCCN2CCN(c3ccccc3F)CC2)cc2c(=O)[nH]c3ccccc3c21,"inconclusive [inhibitor, single point]",–
O=C(CSc1nc2ccccc2[nH]1)c1c[nH]c2ccccc12,–,inactive: 4.85%
Cc1ccc(S(=O)(=O)c2nc(S(C)(=O)=O)sc2N2CCC(C(N)=O)CC2)cc1,"inconclusive [inhibitor, partial curve, poor fit]",–
Cn1nc(C(F)(F)F)c(C(=O)Nc2ccc(F)cc2F)c1Sc1ccc(Cl)cc1,"inconclusive [inhibitor, partial curve, poor fit]",–
NC1=NC[C@H](Cc2ccccc2)N1CCc1cc(C(F)(F)F)cc(C(F)(F)F)c1,active: 3.29 µM,–
C=CCN1C(=O)/C(=C2/Sc3ccccc3N2C)SC1=Nc1ccccc1C,–,inactive: -0.786%
CC1CCN(C(=O)C2CCN(CCCc3ccccc3)CC2)CC1,"inconclusive [inhibitor, single point]",–
COc1ccc(OCc2cc(C(=O)N3CCCN(C(C)=O)CC3)no2)c(Cl)c1,–,inactive: 7.97%
CC1(C)CC(C(CCN(Cc2ccccc2)C(=O)c2ccco2)c2ccc(F)cc2)CCO1 (configuration not stated),active: 11.7 µM,–
CC1CCCN(C(=O)C2c3ccccc3C(=O)N3CCc4ccccc4C23)C1 (configuration not stated),"inconclusive [inhibitor, partial curve, poor fit]",–
CCN(CC)S(=O)(=O)c1cc(C(=O)OC)ccc1Cl,"inconclusive [inhibitor, partial curve, poor fit]",–
CCN(CC)c1ccc2cc(NC(=O)CCC(=O)O)c(=O)oc2c1,"inconclusive [inhibitor, partial curve, poor fit]",–
CC(CCc1ccccc1)NC(=O)COC(=O)c1ccc(NC(N)=O)cc1 (configuration not stated),"inconclusive [inhibitor, single point]",–
COc1cc(NC(=O)CN2C(=O)COc3ccc(S(=O)(=O)N4CCCCC4)cc32)cc(OC)c1,"inconclusive [inhibitor, single point]",–
Cc1ccc(SCc2cc(=O)[nH]c(/N=C(\N)Nc3ccccc3Sc3ccccc3)n2)cc1,"inconclusive [inhibitor, partial curve, poor fit]",–
CCCN1C(=O)C(Cc2nc3ccccc3c(=O)n2-c2ccccc2)c2cc(C)ccc21 (configuration not stated),active: 13.1 µM,–
CCOC(=O)c1c(S(=O)(=O)Nc2ccc(C)cn2)c(C)n(C)c1C,–,inactive: 16.8%

Structure (SMILES),Potency,"activity change, negative = inhibition"
Cc1ccc(SC[C@H](Cc2ccccc2)N2CC[C@@H](NC(=O)OCc3ccccc3)CCC2=O)cc1,"inconclusive [inhibitor, partial curve]",–
COc1ccc(OC)c(C(O)C2CCCCN2)c1 (configuration not stated),"inconclusive [inhibitor, single point]",–
COC(=O)c1ccccc1NC(=S)N(Cc1ccc2c(c1)OCO2)Cc1cc2cc(C)ccc2[nH]c1=O,"inconclusive [inhibitor, single point]",–
Cc1cccc(-n2ncc3c(N(C)Cc4ccccc4)ncnc32)c1,–,inactive: 71.6%
CCOC(=O)c1cnc2cc(-c3ccc(C)cc3)nn2c1-c1ccccc1,"inconclusive [inhibitor, partial curve]",–
O=C1c2cc(F)ccc2-n2c1nc1ccccc1c2=O,active: 0.0329 µM,–
N#CCc1ccc(NC(=O)c2ccc(S(=O)(=O)N3CCOCC3)cc2)cc1,"inconclusive [inhibitor, full curve]",–
Cc1c(C=O)c2ccccc2n1CCOc1ccccc1F,"inconclusive [inhibitor, partial curve, poor fit]",–
CCCCNC(=O)CC1N=C2c3ccccc3N=C(SCC(=O)Nc3cccc(OC)c3)N2C1=O (configuration not stated),"inconclusive [inhibitor, full curve]",–
Cc1ccc(S(=O)(=O)N2C(=O)c3cccc4cccc2c34)cc1,–,inactive: -15.1%
COc1cc(/C=C/C(=O)NC(C)CCc2ccccc2)cc(OC)c1OC (configuration not stated),–,inactive: -29%
COC(=O)c1ccccc1CCC(C)=O,"inconclusive [inhibitor, partial curve, poor fit]",–
C/C(=C\c1ccccc1)C(=O)NCc1ccco1,–,inactive: 4.17% [at 5.75 µM]
CCc1c(C)[nH]c2ccccc2c1=O,active: 1.65 µM,–
CC(=O)N1CCc2cc(S(=O)(=O)NCCC(=O)NCCc3ccc(Cl)cc3)ccc21,"inconclusive [inhibitor, single point]",–
CCOC(=O)C1=C(C)NC(C)=C(C(=O)OCC)C1c1cc2ccc(C)cc2[nH]c1=O,"inconclusive [inhibitor, full curve, poor fit]",–
CCN(C(=O)c1cc(Cl)ccc1OC)c1ccccc1C,"inconclusive [inhibitor, partial curve, poor fit]",–
CC(C)c1nc2sc(C(=O)O)c(N)c2c2c1CCCC2,"inconclusive [inhibitor, partial curve, poor fit]",–
O=C(COC(=O)CCN1C(=O)/C(=C\C=C\c2ccccc2)SC1=S)Nc1ccc(Br)cc1,"inconclusive [inhibitor, single point]",–
CC1CC(=O)Nc2ccccc2N1C(=O)Cn1cnc2ccc(Br)cc2c1=O (configuration not stated),"inconclusive [inhibitor, single point]",–
CC(=O)c1cc(C(C)=O)c(C)[n+](C)c1C,active: 10.4 µM,–
